Single values are uncertain, as repeats are few or missing.
Experiments:
CHO-K1 [1] = assay: relative survival (nuclei to bead ratio vs DMSO control) (% of vehicle control); higher = more surviving cells
Procedure: (§1)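 Flow-cytometric in vitro micronucleus assay (Litron MicroFlow) in CHO-K1 cells in 96-well plates, 19 concentrations (4.5-200 µM, n=1 per concentration). Without S9, cells were exposed for 24 h and sampled at 48 h. With Aroclor 1254-induced rat liver S9, cells were exposed for 3-4 h and sampled at 27-28 h. Read-outs are %MN and %hypodiploid nuclei relative to nucleated events, and relative survival as the nuclei-to-bead ratio versus the 1% DMSO vehicle control (x100).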

CHO-K1 [2] = assay: micronucleus frequency (% of nucleated events); higher = more micronuclei (genotoxic)
CHO-K1 [3] = assay: hypodiploid nuclei frequency (% of nucleated events); higher = more hypodiploid events (aneugenic)
Procedure: as §1
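Throughout, for hypodiploid nuclei frequency (% of nucleated events): hypodiploid nuclei gated on a flow cytometer with 488 nm excitation after SYTOX Green staining, cultures at 37 °C, positive controls vinblastine without S9 and cyclophosphamide with S9.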
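Throughout, for micronucleus frequency (% of nucleated events): cells lysed with nuclei stained by SYTOX Green, then micronucleus-gated events counted against nucleated events by flow cytometry with 488 nm excitation.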
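Throughout, for relative survival (nuclei to bead ratio vs DMSO control): Lysed-cell nuclei stained with SYTOX Green and counted against counting beads by flow cytometry at 488 nm excitation, with vinblastine (no S9) and cyclophosphamide (plus S9) as positive controls.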

Cc1cc(O)ccc1Cl [4-Chloro-3-methylphenol]
Details	hypodiploid nuclei frequency, CHO-K1 [3] [%]	micronucleus frequency, CHO-K1 [2] [%]	relative survival, CHO-K1 [1]
concentration: 4.5 (µM), S9 metabolic activation: with S9, exposure time: 3-4 hours	0.14	1.36	109
concentration: 4.5 (µM), S9 metabolic activation: without S9, exposure time: 24 hours	0.48	1.38	105
concentration: 5.63 (µM), S9 metabolic activation: with S9, exposure time: 3-4 hours	0.34	1.5	117
concentration: 5.63 (µM), S9 metabolic activation: without S9, exposure time: 24 hours	0.66	1.26	117
concentration: 7.04 (µM), S9 metabolic activation: with S9, exposure time: 3-4 hours	0.34	1.34	121
concentration: 7.04 (µM), S9 metabolic activation: without S9, exposure time: 24 hours	0.88	1.34	115
concentration: 8.8 (µM), S9 metabolic activation: with S9, exposure time: 3-4 hours	0.22	1.42	115
concentration: 8.8 (µM), S9 metabolic activation: without S9, exposure time: 24 hours	0.66	1.14	119
concentration: 11 (µM), S9 metabolic activation: with S9, exposure time: 3-4 hours	0.12	1.14	105
concentration: 11 (µM), S9 metabolic activation: without S9, exposure time: 24 hours	0.58	0.92	116
concentration: 13.7 (µM), S9 metabolic activation: with S9, exposure time: 3-4 hours	0.22	1.36	117
concentration: 13.7 (µM), S9 metabolic activation: without S9, exposure time: 24 hours	0.88	2.02	100
concentration: 17.2 (µM), S9 metabolic activation: with S9, exposure time: 3-4 hours	0.24	1.12	98.8
concentration: 17.2 (µM), S9 metabolic activation: without S9, exposure time: 24 hours	0.74	1.62	107
concentration: 21.5 (µM), S9 metabolic activation: with S9, exposure time: 3-4 hours	0.14	1.52	92.8
concentration: 21.5 (µM), S9 metabolic activation: without S9, exposure time: 24 hours	0.78	1.54	98.1
concentration: 26.8 (µM), S9 metabolic activation: with S9, exposure time: 3-4 hours	0.24	2.22	100
concentration: 26.8 (µM), S9 metabolic activation: without S9, exposure time: 24 hours	0.68	1.66	113
concentration: 33.6 (µM), S9 metabolic activation: with S9, exposure time: 3-4 hours	0.44	4.1	90.8
concentration: 33.6 (µM), S9 metabolic activation: without S9, exposure time: 24 hours	0.78	1.38	147
concentration: 41.9 (µM), S9 metabolic activation: with S9, exposure time: 3-4 hours	0.56	4.12	68.7
concentration: 41.9 (µM), S9 metabolic activation: without S9, exposure time: 24 hours	1.16	1.76	104
concentration: 52.4 (µM), S9 metabolic activation: with S9, exposure time: 3-4 hours	0.36	3.52	52.3
concentration: 52.4 (µM), S9 metabolic activation: without S9, exposure time: 24 hours	1.1	1.74	114
concentration: 65.5 (µM), S9 metabolic activation: with S9, exposure time: 3-4 hours	0.38	2.56	58.7
concentration: 65.5 (µM), S9 metabolic activation: without S9, exposure time: 24 hours	1.54	2.1	97.6
concentration: 81.9 (µM), S9 metabolic activation: with S9, exposure time: 3-4 hours	0.44	2.15	46.5
concentration: 81.9 (µM), S9 metabolic activation: without S9, exposure time: 24 hours	1.36	2.04	100
concentration: 102 (µM), S9 metabolic activation: with S9, exposure time: 3-4 hours	0.2	2.32	49.4
concentration: 102 (µM), S9 metabolic activation: without S9, exposure time: 24 hours	2	2.24	94.3
concentration: 128 (µM), S9 metabolic activation: with S9, exposure time: 3-4 hours	0.38	2.61	47.2
concentration: 128 (µM), S9 metabolic activation: without S9, exposure time: 24 hours	2.58	3.1	74.7
concentration: 160 (µM), S9 metabolic activation: with S9, exposure time: 3-4 hours	0.54	2.5	46.5
concentration: 160 (µM), S9 metabolic activation: without S9, exposure time: 24 hours	2.8	2.82	78.5
concentration: 200 (µM), S9 metabolic activation: with S9, exposure time: 3-4 hours	0.42	2.24	51.4
concentration: 200 (µM), S9 metabolic activation: without S9, exposure time: 24 hours	3.06	4.14	68.5

CC(C)(c1ccccc1)c1ccc(O)cc1 [4-Cumylphenol]
Details	hypodiploid nuclei frequency, CHO-K1 [3] [%]	micronucleus frequency, CHO-K1 [2] [%]	relative survival, CHO-K1 [1]
concentration: 4.5 (µM), S9 metabolic activation: with S9, exposure time: 3-4 hours	0.28	1.38	90.8
concentration: 4.5 (µM), S9 metabolic activation: without S9, exposure time: 24 hours	0.72	1	107
concentration: 5.63 (µM), S9 metabolic activation: with S9, exposure time: 3-4 hours	0.24	0.84	108
concentration: 5.63 (µM), S9 metabolic activation: without S9, exposure time: 24 hours	0.6	0.88	119
concentration: 7.04 (µM), S9 metabolic activation: with S9, exposure time: 3-4 hours	0.12	1.18	107
concentration: 7.04 (µM), S9 metabolic activation: without S9, exposure time: 24 hours	0.74	1.22	99.6
concentration: 8.8 (µM), S9 metabolic activation: with S9, exposure time: 3-4 hours	0.24	1.46	91
concentration: 8.8 (µM), S9 metabolic activation: without S9, exposure time: 24 hours	0.4	1.3	110
concentration: 11 (µM), S9 metabolic activation: with S9, exposure time: 3-4 hours	0.12	1.1	90.8
concentration: 11 (µM), S9 metabolic activation: without S9, exposure time: 24 hours	0.74	1.28	126
concentration: 13.7 (µM), S9 metabolic activation: with S9, exposure time: 3-4 hours	0.22	1.02	93.3
concentration: 13.7 (µM), S9 metabolic activation: without S9, exposure time: 24 hours	0.6	1.68	106
concentration: 17.2 (µM), S9 metabolic activation: with S9, exposure time: 3-4 hours	0.18	1.76	79.7
concentration: 17.2 (µM), S9 metabolic activation: without S9, exposure time: 24 hours	0.62	1.8	114
concentration: 21.5 (µM), S9 metabolic activation: with S9, exposure time: 3-4 hours	0.18	1.36	77
concentration: 21.5 (µM), S9 metabolic activation: without S9, exposure time: 24 hours	0.58	1.18	99.6
concentration: 26.8 (µM), S9 metabolic activation: with S9, exposure time: 3-4 hours	0.46	2.52	89.9
concentration: 26.8 (µM), S9 metabolic activation: without S9, exposure time: 24 hours	1.18	2.26	84.6
concentration: 33.6 (µM), S9 metabolic activation: with S9, exposure time: 3-4 hours	0.23	0.94	69.4
concentration: 33.6 (µM), S9 metabolic activation: without S9, exposure time: 24 hours	0.88	3.04	73
concentration: 41.9 (µM), S9 metabolic activation: with S9, exposure time: 3-4 hours	0.1	1.01	53.5
concentration: 41.9 (µM), S9 metabolic activation: without S9, exposure time: 24 hours	0.72	2.04	59.7
concentration: 52.4 (µM), S9 metabolic activation: with S9, exposure time: 3-4 hours	0.14	1.15	45
concentration: 52.4 (µM), S9 metabolic activation: without S9, exposure time: 24 hours	1.6	2.94	74.6
concentration: 65.5 (µM), S9 metabolic activation: with S9, exposure time: 3-4 hours	0.29	1.06	40.2
concentration: 65.5 (µM), S9 metabolic activation: without S9, exposure time: 24 hours	1.28	1.62	55.1
concentration: 81.9 (µM), S9 metabolic activation: with S9, exposure time: 3-4 hours	0.1	0.57	50
concentration: 81.9 (µM), S9 metabolic activation: without S9, exposure time: 24 hours	3.12	4.48	61
concentration: 102 (µM), S9 metabolic activation: with S9, exposure time: 3-4 hours	–	–	37.5
concentration: 102 (µM), S9 metabolic activation: without S9, exposure time: 24 hours	6.4	5.48	51.1
concentration: 128 (µM), S9 metabolic activation: with S9, exposure time: 3-4 hours	0.08	2.68	50.1
concentration: 128 (µM), S9 metabolic activation: without S9, exposure time: 24 hours	10.2	9.72	42
concentration: 160 (µM), S9 metabolic activation: with S9, exposure time: 3-4 hours	0.31	6.25	41.5
concentration: 160 (µM), S9 metabolic activation: without S9, exposure time: 24 hours	–	–	23.4
concentration: 200 (µM), S9 metabolic activation: without S9, exposure time: 24 hours	–	–	1.44

CCCCCCc1ccc(O)cc1O [4-Hexylresorcinol]
Details	hypodiploid nuclei frequency, CHO-K1 [3] [%]	micronucleus frequency, CHO-K1 [2] [%]	relative survival, CHO-K1 [1]
concentration: 4.5 (µM), S9 metabolic activation: with S9, exposure time: 3-4 hours	0.16	0.56	107
concentration: 4.5 (µM), S9 metabolic activation: without S9, exposure time: 24 hours	5.68	3.94	118
concentration: 5.63 (µM), S9 metabolic activation: with S9, exposure time: 3-4 hours	0.32	1.16	92.2
concentration: 5.63 (µM), S9 metabolic activation: without S9, exposure time: 24 hours	11.2	7.86	109
concentration: 7.04 (µM), S9 metabolic activation: with S9, exposure time: 3-4 hours	0.18	1.04	92.7
concentration: 7.04 (µM), S9 metabolic activation: without S9, exposure time: 24 hours	17.8	14.3	100
concentration: 8.8 (µM), S9 metabolic activation: with S9, exposure time: 3-4 hours	0.24	0.84	99.7
concentration: 8.8 (µM), S9 metabolic activation: without S9, exposure time: 24 hours	25.2	24.7	82.9
concentration: 11 (µM), S9 metabolic activation: with S9, exposure time: 3-4 hours	0.36	0.88	102
concentration: 11 (µM), S9 metabolic activation: without S9, exposure time: 24 hours	31.4	32.7	67.1
concentration: 13.7 (µM), S9 metabolic activation: with S9, exposure time: 3-4 hours	0.38	0.76	115
concentration: 13.7 (µM), S9 metabolic activation: without S9, exposure time: 24 hours	33	35.5	59.4
concentration: 17.2 (µM), S9 metabolic activation: with S9, exposure time: 3-4 hours	0.46	0.86	100
concentration: 17.2 (µM), S9 metabolic activation: without S9, exposure time: 24 hours	29.4	40.4	51.5
concentration: 21.5 (µM), S9 metabolic activation: with S9, exposure time: 3-4 hours	0.22	0.9	91.7
concentration: 21.5 (µM), S9 metabolic activation: without S9, exposure time: 24 hours	25	44.7	45.3
concentration: 26.8 (µM), S9 metabolic activation: with S9, exposure time: 3-4 hours	0.28	1.26	85.3
concentration: 26.8 (µM), S9 metabolic activation: without S9, exposure time: 24 hours	–	–	31.6
concentration: 33.6 (µM), S9 metabolic activation: with S9, exposure time: 3-4 hours	0.3	1.34	72.7
concentration: 33.6 (µM), S9 metabolic activation: without S9, exposure time: 24 hours	–	–	29.4
concentration: 41.9 (µM), S9 metabolic activation: with S9, exposure time: 3-4 hours	0.14	1.6	63.5
concentration: 41.9 (µM), S9 metabolic activation: without S9, exposure time: 24 hours	–	–	26.5
concentration: 52.4 (µM), S9 metabolic activation: with S9, exposure time: 3-4 hours	0.3	1.54	68.8
concentration: 52.4 (µM), S9 metabolic activation: without S9, exposure time: 24 hours	–	–	30
concentration: 65.5 (µM), S9 metabolic activation: with S9, exposure time: 3-4 hours	0.2	1.68	51.4
concentration: 65.5 (µM), S9 metabolic activation: without S9, exposure time: 24 hours	–	–	23.8
concentration: 81.9 (µM), S9 metabolic activation: with S9, exposure time: 3-4 hours	0.38	1.44	57.1
concentration: 81.9 (µM), S9 metabolic activation: without S9, exposure time: 24 hours	–	–	17.4
concentration: 102 (µM), S9 metabolic activation: with S9, exposure time: 3-4 hours	0.38	1.38	55.3
concentration: 102 (µM), S9 metabolic activation: without S9, exposure time: 24 hours	–	–	9.13
concentration: 128 (µM), S9 metabolic activation: with S9, exposure time: 3-4 hours	0.22	1.08	65.2
concentration: 128 (µM), S9 metabolic activation: without S9, exposure time: 24 hours	–	–	11.4
concentration: 160 (µM), S9 metabolic activation: with S9, exposure time: 3-4 hours	0.36	2.24	50
concentration: 160 (µM), S9 metabolic activation: without S9, exposure time: 24 hours	–	–	10.8
concentration: 200 (µM), S9 metabolic activation: with S9, exposure time: 3-4 hours	–	–	19.3
concentration: 200 (µM), S9 metabolic activation: without S9, exposure time: 24 hours	–	–	13.5
